# The full ranking holds about 4,100 sequences; the median of “relative CpG methylation activity (normalised to average over all NNNCGNNN flanks)” is about 0.94, and the highest 2% start at about 1.9. This is one part of the list.
# Target: DNMT3B catalytic domain (mouse) (UniProt O88509)
# Assay: relative CpG methylation activity (normalised to average over all NNNCGNNN flanks) (relative (1 = mean)); higher = more methylation of the central CpG
# Conditions: system: in vitro, murine catalytic domain; CpG state: hemimethylated substrate pool; residues: 558-859
# Description: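 Deep enzymology: a pool of dsDNA substrates with a central CpG flanked by 10 random nucleotides on each side was methylated by the murine DNMT3A or DNMT3B catalytic domain (0.8 mM SAM, 37 °C, 60 min). Methylation was then read out by hairpin ligation, bisulfite conversion and NGS. Values are the average methylation of each NNNCGNNN context (±3 flanks; the outer flanks are random and averaged over), normalised to the overall mean, so 1 = average activity.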
# UniProt O88509, sequence (O88509 558-859): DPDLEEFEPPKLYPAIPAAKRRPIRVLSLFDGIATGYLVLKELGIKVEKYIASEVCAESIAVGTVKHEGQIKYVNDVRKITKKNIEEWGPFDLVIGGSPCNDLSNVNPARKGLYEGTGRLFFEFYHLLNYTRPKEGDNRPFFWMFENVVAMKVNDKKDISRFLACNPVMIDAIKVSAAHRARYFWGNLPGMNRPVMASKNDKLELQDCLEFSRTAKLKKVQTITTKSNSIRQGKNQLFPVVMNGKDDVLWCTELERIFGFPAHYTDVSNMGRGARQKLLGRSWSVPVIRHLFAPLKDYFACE
row,Sequence,relative CpG methylation activity
1,ATGCGTGT,0.375
2,CACCGCTC,0.971
3,CGGCGTAT,0.244
4,GGCCGTCA,0.271
5,ACCCGGCT,1.67
6,CTTCGTGA,0.565
7,CAGCGGGC,1.23
8,AGGCGCCA,0.403
9,CAACGGCT,1.92
10,TTCCGCTT,1.11
11,TGTCGATT,1.27
12,CTACGAGA,1.96
13,TATCGGTT,1.28
14,AATCGCGC,0.663
15,AAACGAAA,1.58
16,CGGCGGCT,0.862
17,GTACGGCG,2.05
18,CCTCGCTG,0.573
19,CGGCGCCA,0.538
20,GCCCGGTC,1.38
21,GAACGGTG,1.16
22,GACCGGGA,0.885
23,TCTCGCCG,0.85
24,TCCCGTTA,0.532
25,TACCGGGA,1.1

row,Sequence,relative CpG methylation activity
1,CGCCGACT,1.07
2,GAGCGAAT,1.01
3,TCTCGCGG,0.647
4,AGCCGTCG,0.254
5,ATCCGAAC,1.63
6,CATCGCTT,1.01
7,CAACGCTT,1.18
8,TATCGACC,1.45
9,CACCGGAT,0.755
10,ATTCGTAG,0.332
11,AGACGAGT,1.68
12,AACCGAGA,1.29
13,TTGCGCCA,1.02
14,GAGCGGCG,1.08
15,AGCCGAAT,0.659
16,CTTCGGTG,1.46
17,CTGCGTAA,0.888
18,GCACGTGT,0.344
19,TATCGATT,1.84
20,ACGCGAGC,1.24
21,TTCCGCGG,0.777
22,AGGCGCCT,0.571
23,CACCGGCT,1.63
24,TGACGGAT,0.829
25,TTGCGGTC,1.65

row,Sequence,relative CpG methylation activity
1,CTTCGAGG,1.65
2,AGACGTCC,1.13
3,CACCGGGG,0.801
4,AGACGAGC,1.8
5,CTGCGCTA,0.872
6,CAACGGGA,1.82
7,TCGCGAAA,0.764
8,ACACGATC,1.75
9,TTTCGCTA,1.16
10,GTGCGTGC,0.743
11,CTCCGCAA,0.709
12,CCTCGAGG,1.6
13,GTCCGGAC,1.17
14,TGCCGCCG,0.486
15,ACTCGCTG,0.495
16,TCCCGTGT,0.497
17,GAGCGCAC,0.496
18,TGCCGCCA,0.429
19,GAGCGACA,0.656
20,GCCCGCCC,0.94
21,CCCCGTCG,0.883
22,TCGCGATT,0.953
23,TACCGCGG,0.374
24,AACCGCAA,0.243
25,ACACGGCG,1.6

row,Sequence,relative CpG methylation activity
1,ACCCGGAT,0.954
2,ACGCGTAA,0.539
3,TAGCGATG,0.904
4,AGTCGTCA,0.379
5,GAGCGGTC,1.08
6,GATCGTAC,0.775
7,CGTCGAAA,1.21
8,GGCCGAAC,1.09
9,TGGCGATA,0.923
10,CGGCGGGA,0.773
11,ATACGCCA,1.68
12,CTTCGTAG,0.575
13,GTTCGCGA,0.579
14,TTACGGCA,2.04
15,CTTCGATA,1.56
16,ACCCGGAG,0.708
17,TGGCGCGC,0.299
18,TACCGATC,1.57
19,GTCCGCGT,0.627
20,CGTCGCAG,0.295
21,CCCCGACC,1.46
22,TCCCGGAT,0.938
23,ACACGCCA,1.38
24,GTGCGTTC,1.33
25,GTTCGCCA,0.862

row,Sequence,relative CpG methylation activity
1,GCCCGCAA,0.477
2,GTTCGCTG,0.827
3,GGACGCTC,1.29
4,CCGCGACG,0.924
5,CATCGCCT,1.01
6,TGGCGAGC,1.13
7,CTTCGAGT,1.28
8,TGACGTAG,0.75
9,GCTCGCCG,0.812
10,ATGCGATT,1.22
11,GACCGATG,0.987
12,GTGCGTTA,0.511
13,GGTCGAGG,0.969
14,CTGCGCAA,0.612
15,CCACGTTT,0.776
16,GTCCGAGT,1.37
17,TAACGCCA,1.46
18,AAGCGTGC,0.448
19,AATCGCTT,0.892
20,TTTCGCGT,1.32
21,CGACGCAC,0.749
22,ATCCGCGA,0.41
23,GGACGGGT,1.07
24,GCACGACT,1.07
25,AGTCGACA,1.24

row,Sequence,relative CpG methylation activity
1,CCTCGAAA,1.47
2,CGACGTGC,0.674
3,GCCCGTTT,0.456
4,TAACGCGG,1.19
5,CGTCGATC,1.7
6,TGTCGCTG,0.877
7,TTTCGGTA,1.42
8,GTGCGAGC,1.52
9,GCTCGTAT,0.509
10,TCACGTAC,1.23
11,GCTCGCTA,0.724
12,AGGCGTAC,0.539
13,ACCCGAAT,1.08
14,GTACGGCC,1.9
15,ATCCGCAC,0.969
16,AGACGCAT,0.54
17,CGGCGGCC,1.11
18,AATCGGCT,1.84
19,GTACGTCA,1.19
20,CAACGCTC,1.57
21,ATTCGCGT,0.583
22,CTGCGAGT,0.957
23,AGTCGTAG,0.146
24,AGGCGAAG,0.363
25,CAGCGCGT,0.413

row,Sequence,relative CpG methylation activity
1,GCGCGGGA,0.853
2,CTACGACG,1.81
3,ATCCGTGG,0.29
4,AGGCGACA,0.553
5,GACCGATT,1.22
6,TTGCGCCC,1.54
7,TACCGCAT,0.389
8,CGACGGTT,0.817
9,AGTCGTGC,0.61
10,GGCCGTAC,0.571
11,ACCCGAAA,1.46
12,TACCGTTG,0.259
13,CGTCGCAT,0.29
14,GATCGAAC,1.16
15,TAGCGTCC,0.858
16,CTCCGCTG,0.983
17,GATCGGTA,0.838
18,CGTCGCTT,0.865
19,CGCCGATC,1.4
20,GGACGTGG,0.332
21,GACCGCAA,0.281
22,AGCCGAAC,0.991
23,TCGCGTGG,0.463
24,CGTCGAAG,0.894
25,TCCCGAAG,1.34

row,Sequence,relative CpG methylation activity
1,GAACGGGA,1.45
2,TCCCGGCC,1.6
3,GGTCGCAC,0.424
4,CCACGGAA,1.15
5,TATCGTCC,1.22
6,CTTCGGTA,1.51
7,TCGCGCGG,0.653
8,CTTCGCTA,1.18
9,TAGCGGAG,0.361
10,AGGCGTGC,0.175
11,ACCCGTTT,0.295
12,CGGCGTGC,0.326
13,TGCCGATA,1.1
14,AAGCGGCG,1.07
15,CGACGAGA,1.66
16,TCACGAAC,1.67
17,TGACGTTA,0.471
18,TTGCGATG,1.14
19,GCGCGACG,0.694
20,CTCCGCGA,0.802
21,TCGCGGGA,0.949
22,CATCGTAT,0.559
23,AAACGTGG,0.407
24,CTTCGATG,1.33
25,ACACGCAG,0.625

row,Sequence,relative CpG methylation activity
1,CGGCGTAA,0.402
2,TTCCGCGT,0.841
3,TGTCGTAT,0.243
4,GGACGGTA,0.923
5,CCGCGGCT,1.14
6,ATCCGACG,1.08
7,AGTCGATA,1.57
8,GACCGCGG,0.193
9,GTGCGCCA,0.939
10,CGACGTTC,0.699
11,AAACGAAG,1.18
12,GGGCGCTC,0.566
13,ATACGCTA,1.58
14,AGACGGAG,0.717
15,TTTCGCTT,1.17
16,TAACGAAA,1.59
17,TTACGACC,1.87
18,GAGCGATA,1.19
19,AGTCGTTA,0.494
20,AGACGTCT,0.991
21,AAGCGGGG,0.684
22,TGCCGGCC,1.1
23,GAACGATA,1.64
24,CACCGCCA,0.643
25,TCTCGGGC,1.69

row,Sequence,relative CpG methylation activity
1,CACCGAAG,1.01
2,GGGCGCAA,0.152
3,CAACGACA,1.5
4,CGCCGTGG,0.193
5,TGGCGACC,0.554
6,AACCGACG,0.752
7,ATCCGGGC,1.58
8,GTTCGATA,1.46
9,TAGCGCCG,0.742
10,CTGCGCCG,1.15
11,CTCCGGCG,1.54
12,GAGCGGTG,0.965
13,AACCGGAT,0.519
14,TGTCGTAG,0.188
15,GAACGGTT,1.22
16,TGTCGCCG,0.691
17,CGACGATG,1.12
18,GAACGCAA,0.648
19,ACTCGTTC,0.665
20,TGTCGAGG,1.06
21,GTGCGTGA,0.626
22,ATGCGGGA,1.08
23,TCTCGTCT,0.777
24,GTGCGGTG,0.853
25,TATCGTCT,0.897

row,Sequence,relative CpG methylation activity
1,TAACGACG,1.39
2,TGCCGTGA,0.229
3,GTTCGAGT,1.31
4,AACCGCTC,0.489
5,TTGCGAGC,1.43
6,CAGCGCGG,0.606
7,GGACGGGC,1.41
8,CGACGGAG,0.643
9,CACCGGTG,1.14
10,GCACGCGT,0.853
11,TAGCGACG,0.563
12,CGCCGAGG,0.682
13,TGACGTCC,0.963
14,TTGCGCGA,0.688
15,GGACGCCA,1.01
16,TACCGAAA,1.07
17,GTACGTTC,1.34
18,AGTCGGCA,2.11
19,AGGCGGAG,0.295
20,GGACGCCT,1.12
21,AATCGCTG,0.538
22,GAACGGGG,1.23
23,GATCGCTC,0.935
24,TAGCGTCA,0.661
25,GGACGGCT,1.51

row,Sequence,relative CpG methylation activity
1,CGGCGTCT,0.355
2,TAACGGCG,1.78
3,CATCGACA,1.44
4,TCTCGGCC,1.96
5,CATCGAGA,1.77
6,AACCGCCA,0.429
7,CTGCGGCA,1.47
8,TGTCGTAC,0.896
9,TGGCGCGA,0.134
10,TCACGCCT,1.3
11,TTCCGACG,1.57
12,GCACGTAT,0.715
13,CCCCGTAC,1.2
14,GCCCGTCT,0.685
15,GAACGATG,1.17
16,AGTCGATT,1.68
17,ACACGAAA,1.47
18,TCACGGTG,0.823
19,GTGCGAAA,1.05
20,CTGCGAAA,1.32
21,AACCGTGC,0.377
22,GGGCGGAG,0.141
23,AAGCGCAA,0.301
24,AGACGACT,1.28
25,TCGCGGAC,0.818

row,Sequence,relative CpG methylation activity
1,GTACGAAG,1.57
2,GACCGATA,1.4
3,CGACGCAT,0.454
4,GAACGGCG,1.53
5,GGCCGCAA,0.15
6,GCGCGGTA,0.743
7,TTGCGAAT,0.984
8,CCACGTGA,0.579
9,GTCCGTCC,1.22
10,TATCGCAG,0.473
11,CTACGAAG,1.6
12,GGACGCGG,0.51
13,GACCGTAT,0.195
14,CCACGTGT,0.602
15,AGACGGGG,1.39
16,GAGCGATC,1.19
17,AAGCGCGA,0.317
18,TTGCGTTA,0.783
19,TTTCGCCC,1.24
20,TGGCGCGG,0.275
21,GCCCGGTG,0.787
22,TGACGCTT,0.78
23,GGCCGGGT,0.602
24,AAACGTTG,0.803
25,ACCCGCCC,0.915

row,Sequence,relative CpG methylation activity
1,GTTCGAAT,1.18
2,CGGCGCTG,0.263
3,AGGCGCTG,0.492
4,TCACGCTT,1.36
5,CGCCGGTG,0.818
6,GGTCGTTT,0.417
7,ACCCGTCA,0.703
8,GGGCGACC,0.686
9,TCGCGACT,0.892
10,GCCCGTCA,0.497
11,CAGCGCGC,0.727
12,GGGCGATT,0.992
13,TTGCGGAT,0.852
14,TCTCGAAA,1.17
15,AGTCGCGG,0.566
16,AGGCGTAG,0.21
17,GTCCGCAC,0.958
18,GCCCGTGC,0.63
19,CTCCGTGT,0.492

# — the supplement of paper PMC7335073
